Results taken from publication PMC4336329 (PLoS ONE, 2015).
Out of some 310,000 compounds screened, about 14,000 (4.5%) showed an effect of 50% or more. Effects have a minus sign here. This is one part of the list.

Biological target: human ether-à-go-go-related gene (hERG) potassium channel (human, UniProt Q12809)
Assay: primary screen, population patch clamp on CHO cells stably expressing hERG
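Also: peak tail current of the secondary pulse compared with the same well before compound.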

Sequence of human ether-à-go-go-related gene (hERG) potassium channel (Q12809 whole entry, looked up): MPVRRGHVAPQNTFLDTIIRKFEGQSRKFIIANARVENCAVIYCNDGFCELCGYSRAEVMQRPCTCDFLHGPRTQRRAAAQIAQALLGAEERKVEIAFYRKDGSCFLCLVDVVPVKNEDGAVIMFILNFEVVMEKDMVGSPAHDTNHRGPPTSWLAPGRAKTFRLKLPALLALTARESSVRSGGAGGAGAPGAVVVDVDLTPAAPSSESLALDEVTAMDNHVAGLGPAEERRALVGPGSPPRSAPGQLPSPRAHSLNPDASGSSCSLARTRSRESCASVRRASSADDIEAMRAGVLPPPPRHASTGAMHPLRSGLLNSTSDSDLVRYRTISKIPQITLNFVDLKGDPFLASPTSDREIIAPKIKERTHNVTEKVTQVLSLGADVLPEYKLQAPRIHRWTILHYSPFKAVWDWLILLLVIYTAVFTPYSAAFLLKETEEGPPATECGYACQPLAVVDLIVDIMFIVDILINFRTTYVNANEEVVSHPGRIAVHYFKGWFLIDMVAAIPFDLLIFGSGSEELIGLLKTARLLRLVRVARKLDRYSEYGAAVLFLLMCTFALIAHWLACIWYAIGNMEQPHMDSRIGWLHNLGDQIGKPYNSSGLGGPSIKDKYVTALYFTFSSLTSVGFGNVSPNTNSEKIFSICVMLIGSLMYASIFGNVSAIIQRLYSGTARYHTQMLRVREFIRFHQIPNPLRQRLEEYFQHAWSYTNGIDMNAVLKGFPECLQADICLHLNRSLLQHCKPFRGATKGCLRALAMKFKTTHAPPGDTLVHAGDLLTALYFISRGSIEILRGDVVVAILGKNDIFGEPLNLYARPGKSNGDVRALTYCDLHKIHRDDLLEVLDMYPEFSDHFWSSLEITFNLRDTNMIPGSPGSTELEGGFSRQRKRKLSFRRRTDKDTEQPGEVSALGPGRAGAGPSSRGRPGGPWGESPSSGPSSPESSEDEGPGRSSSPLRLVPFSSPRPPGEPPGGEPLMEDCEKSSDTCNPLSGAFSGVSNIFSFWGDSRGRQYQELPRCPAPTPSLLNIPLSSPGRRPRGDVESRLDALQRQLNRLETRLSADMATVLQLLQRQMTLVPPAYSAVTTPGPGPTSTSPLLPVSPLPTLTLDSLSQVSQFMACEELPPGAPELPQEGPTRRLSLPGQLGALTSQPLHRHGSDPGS

Structure (SMILES) | hERG current change (%, negative = inhibition) at 10uM
CCN(C(=O)c1cc2c(=O)n3ccccc3nc2n1C)C1CCCCC1 | 6.65%
Fc1ccc(N2CCN(Cc3nnc(-c4ccccc4)o3)CC2)cc1 | -11.9%
COC(=O)c1ccc(CNC(=O)c2coc3ccccc3c2=O)cc1 | 15.9%
O=C(N/N=C/c1c(O)ccc2ccccc12)c1cccnc1 | 7.7%
Cc1nc(NC(=O)CCN2C(=O)C3CC=CCC3C2=O)sc1C (stereo not shown) | -0.353%
CCO[C@H]1OC(C(=O)O)=C[C@@H](c2ccc3c(c2)OCO3)[C@@H]1CCCO | 15.6%
CS(=O)(=O)Nc1ccc(C(=O)NCCSCc2ccco2)cc1 | -44.1%
CSc1ccc(CN2CCN(C(=O)COc3ccc(C)cc3)CC2)cc1.O=C(O)C(=O)O | -60.4%
COc1ccc(-c2csc3nc(-c4cccnc4)nc(N4CCC(C(N)=O)CC4)c23)cc1OC | -28.9%
Cc1c(S(=O)(=O)NC2CCCCC2)c(=O)n(C)c(=O)n1C | -2.37%
O=C(O)CCc1ccc(-c2ccc(Cl)cc2)n1CC(=O)O | -38.4%
O=C(Nn1cnnc1)c1cc(-c2ccccn2)nc2ccccc12 | 1.57%
CC(C)NC(=O)Cn1c(SCC(=O)c2ccc(F)cc2)nc2ccccc21 | 6.27%
CC(=O)c1cccc(N=Nc2c(C)[nH]c3ccccc23)c1 | 20.5%
O=C1CC(N2CCC(O)(c3ccc(Cl)cc3)CC2)C(=O)N1 (stereo not shown) | -1.76%
O=C(CN1C(=O)CCOc2ccccc21)Nc1cccc(S(=O)(=O)N2CCOCC2)c1 | -17.9%
Cc1ccc(NC(=O)Nc2ccc(F)c(Cl)c2)cc1 | 18.7%
Cc1ccc(S(=O)(=O)NC(CC(C)C)C(=O)Nc2nccs2)cc1 (stereo not shown) | 11.5%
CNC(=O)COc1ncnc2scc(-c3ccc(F)cc3)c12 | 14.8%
CCCCCC1CC(CC(=O)NC(=S)Nc2ccccc2Cl)C(=O)O1 (stereo not shown) | 19.8%
COc1cc2c(cc1OC)C1(NCC2)C(=O)Nc2ccccc21 (stereo not shown) | -1.97%
NCCNC(=O)Cc1cccc(NC(=O)Cc2ccc(Nc3ncnc4c3ncn4[C@@H]3O[C@H](CO)[C@@H](O)[C@H]3O)cc2)c1 | 16.7%

Structure (SMILES) | hERG current change (%, negative = inhibition) at 10uM
COc1ccc(C(=O)C2CCCN(Cc3cc(C)c(O)c(C)c3)C2)c(OC)c1 (stereo not shown) | -61%
COc1cc2c(cc1OC)CN(CC(=O)Nc1cccc(C)c1)CC2 | -18.8%
Cc1ccccc1C(=O)N1CCC(C(=O)Nc2ccc3c(c2)OCCO3)CC1 | 5.7%
Cc1cnc(SCc2ccc(Cl)cc2Cl)[nH]c1=O | 13.5%
O=C(Nc1cccc(O)c1)c1cc(-c2ccccc2Cl)on1 | 20.7%
CS(=O)(=O)N1CCCC(C(=O)c2cccc(Cl)c2)C1 (stereo not shown) | 19.4%
CCc1c(C)nc(SCC(=O)N2CCCCC2CC)[nH]c1=O (stereo not shown) | -2.66%
Cc1[nH]c(=O)[nH]c(=O)c1/C=C/C(=O)O | -8.47%
CNC(=O)c1[nH]cnc1C(=O)Nc1cccc(Cl)c1 | -5.99%
CCOC(=O)c1c(C)n(C)c2ccc(OC)c(NC(=O)CN3CCSCC3)c12 | 14.7%
CC1=C(C(=O)N2CCOCC2)C(c2ccc(OC(F)F)cc2)NC(=S)N1c1ccccc1 (stereo not shown) | 11.9%
O=S(=O)(Cc1ccccc1)N1CCCC1 | 2.58%
Cc1ccc(S(=O)(=O)Nc2ccc(N3CCOCC3)cc2)cc1C | 2.95%
O=C(Nc1cccc(-c2nnc(-c3ccco3)o2)c1)c1ccccc1 | -21.5%
COc1ccc(C(C)(C)C)cc1S(=O)(=O)n1ccnc1C | 12.1%
O=C(Nc1cc2c3c(c1)CC(=O)N3CCC2)c1ccc(F)cc1 | -15.8%
COc1ccc(CNC(=O)CSc2nc(C)cs2)cc1 | 5.7%
Cc1cc(C)cc(NC(=S)NC2CC3CCCC(C2)N3Cc2cccs2)c1 (stereo not shown) | -52.9%
COc1cc(F)c(C2=CC(=O)C[C@H](c3ccc(Cl)cc3)C2)cc1F | 25.7%
OC1(C(F)(F)F)CC(O)(C(F)(F)F)n2nc(-c3ccccc3)cc2N1 (stereo not shown) | -0.248%
CCn1c(C(C)NC(=O)c2ccc(OC)c(OC)c2)nc2ccccc21 (stereo not shown) | -40%
